Test results taken from PubChem BioAssay AID2675 (National Center for Advancing Translational Sciences (NCATS), 2010).
In all, about 280,000 compounds went through this assay and about 100 (0.036%) were called active. The shares of active, inactive and inconclusive entries below differ from those in the screen. Calls come from the whole dose curve; as a rule, active = well fitted inhibition curve with a large enough effect in the signal ratio, with a control signal flat (not every such curve was filed as active); inconclusive = small, poorly fitted or top-dose-only effect, or effect the other way, or a change in a side signal; inactive = no such curve, though single readings can be large or run the other way; the % refers to the signal ratio. Where the call is inconclusive, the potency comes from a doubtful curve fit. “Side channel” marks fits to a control or component signal instead of the main read-out.

These molecules were tested against Muscleblind-like protein 1 (Homo sapiens) (UniProt Q9NR56) (assay: qHTS Assay for Inhibitors of MBNL1-poly(CUG) RNA binding). Settings: TR-FRET MBNL1-His/biotin-(CUG)12 binding, 665/545 ratio; activity change, negative = inhibition: at 57.5 µM (top of the series).
In short: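 Compounds (final 92 nM to 58 uM) are added to His-tagged MBNL1 and biotin-(CUG)12, then terbium anti-His antibody and streptavidin-XL665 (5 nM final). After 60 min at room temperature, the 665/545 nm ratio is read.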
% is set by controls: 0 for no effect and ±100 for the full control effect; potency is the fitted concentration of half-maximal effect; tags give direction and shape of the fitted curve or compound fluorescence and quenching.

Sequence of UniProt Q9NR56 (Q9NR56 whole entry, looked up): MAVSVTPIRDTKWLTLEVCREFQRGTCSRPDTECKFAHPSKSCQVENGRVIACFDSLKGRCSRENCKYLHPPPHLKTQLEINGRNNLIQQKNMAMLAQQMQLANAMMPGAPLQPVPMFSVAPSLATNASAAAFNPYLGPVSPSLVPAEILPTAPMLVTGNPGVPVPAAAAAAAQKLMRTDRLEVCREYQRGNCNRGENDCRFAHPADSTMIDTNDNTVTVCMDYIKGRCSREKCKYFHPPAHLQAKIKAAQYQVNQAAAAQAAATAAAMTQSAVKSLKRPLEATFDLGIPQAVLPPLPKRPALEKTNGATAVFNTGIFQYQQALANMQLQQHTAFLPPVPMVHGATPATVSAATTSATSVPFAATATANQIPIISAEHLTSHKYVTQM

Row | SMILES | Potency | activity change, negative = inhibition
1 | O=C1NC(=NCc2ccccc2)S/C1=C/c1ccc(O)cc1 | inconclusive: 20 µM [quencher, side channel, single point] | 
2 | COc1ccc(/C=C2\CCc3ccccc3C2=O)cc1Cn1cccn1 | inconclusive: 35.5 µM [quencher, side channel, single point] | 
3 | CC1CCCCN1CCCNc1ccc(C(CC(N)=O)NC(=O)Cc2ccc(Cl)cc2)cc1[N+](=O)[O-] (stereo not given) | inconclusive: 25.1 µM [quencher, side channel, partial curve] | 
4 | CC(=O)Oc1ccc2nc(CN3C(=O)c4ccc([N+](=O)[O-])cc4C3=O)oc(=O)c2c1 | inconclusive: 15.8 µM [quencher, partial curve] | 
5 | O=C(Nc1nc(-c2ccccc2)c(-c2ccccc2)o1)c1ccc(F)cc1 |  | inactive: -2.57%
6 | O=[N+]([O-])c1ccc(Sc2n[nH]c(-c3ccncc3)n2)nc1 | inconclusive: 14.1 µM [quencher, side channel, partial curve] | 
7 | COc1ccc(OC)c(/C=N/NC(=O)Cc2nc3ccccc3[nH]2)c1 | inconclusive: 31.6 µM [quencher, single point] | 
8 | COc1ccc2c(c1)CCc1c(C(=O)Nc3cc(C)n(Cc4ccc(Cl)cc4)n3)noc1-2 |  | inactive: -2.72%
9 | C=CCc1c(C)nc2c(C)cccc2c1SC(=N)N | inconclusive: 31.6 µM [quencher, side channel, single point] | 
10 | CCS(=O)(=O)NCc1ccc2c(c1)cc(C)n2C | inconclusive: 0.141 µM [quencher, side channel, full curve, poor fit] | 
11 | COc1ccc(C(=O)/C=C/Nc2c(C)n(C)n(-c3ccccc3)c2=O)c(OC)c1 | inconclusive: 14.1 µM [quencher, side channel, partial curve] | 
12 | COc1cc(/C=C/C(=O)c2ccc(Cl)s2)cc(OC)c1O | inconclusive: 15.8 µM [quencher, side channel, partial curve] | 
13 | Cc1ccc(N=Nc2c(C)[nH]n(-c3ccccc3)c2=O)c(C)c1 | inconclusive: 10 µM [quencher, side channel, partial curve] | 
14 | O=C(Nc1cccc(S(=O)(=O)N2CCOCC2)c1)c1ccco1 |  | inactive: 1.08%
15 | O=C(NCCO)c1ccc2c3n(nc2c1)-c1ccccc1CO3 | inconclusive: 14.1 µM [quencher, side channel, partial curve] | 
16 | OCCCNc1ncnc2sc3c(c12)CCN(Cc1ccccc1)C3 | inconclusive: 28.2 µM [quencher, side channel, single point] | 
17 | COc1ccccc1CCNC(=O)Nc1cccc([N+](=O)[O-])c1 | inconclusive: 25.1 µM [quencher, side channel, partial curve] | 
18 | CN(CC1CCCO1)S(=O)(=O)c1ccc(C(=O)Nc2nnc(-c3ccccc3)o2)cc1 (stereo not given) |  | inactive: 4.23%
19 | CCc1cccc(NC(=O)CN(C)S(=O)(=O)c2cccc3nsnc23)c1 | inconclusive: 25.1 µM [quencher, side channel, partial curve] | 
20 | O=C(NC(=S)NNC(=O)c1ccccc1O)c1cccs1 |  | inactive: 0.538%

Row | SMILES | Potency | activity change, negative = inhibition
21 | Cc1ccc(Cn2c(SCC(=O)Nc3cc(C)on3)nc3ccccc3c2=O)cc1 | inconclusive: 35.5 µM [fluorescent, side channel, partial curve] | 
22 | Cc1nn(-c2ccccc2)c(C)c1/C=N/NC(=O)c1cc(-c2cccs2)[nH]n1 |  | inactive: -10.4%
23 | CC(C)c1onc(C(=O)N2CCN(C(c3ccccc3)c3ccccc3)CC2)c1[N+](=O)[O-] | inconclusive: 0.316 µM [inhibitor, full curve, poor fit] | 
24 | N#CC1=C(N)NC(=S)C(C(N)=O)C1c1ccc([N+](=O)[O-])cc1 (stereo not given) | inconclusive: 28.2 µM [quencher, side channel, partial curve] | 
25 | Cc1ccc([N+](=O)[O-])cc1N=C1C(=O)Nc2ccccc21 | inconclusive: 15.8 µM [quencher, partial curve] | 
26 | COc1ccc(C(=O)N/N=C/C(Br)=C/c2ccccc2)cc1 |  | inactive: 17.7%
27 | COCCn1c(SCC(=O)NCc2ccccc2)nnc1-c1ccco1 | inconclusive: 39.8 µM [quencher, side channel, single point] | 
28 | COC(=O)CCC(=O)Nc1cccc([N+](=O)[O-])c1 | inconclusive: 22.4 µM [quencher, side channel, partial curve] | 
29 | COc1cccc(C=Nc2ccccc2C(=O)Nc2nccs2)c1OC |  | inactive: -6.92%
30 | CCOC(=O)C1CCN(C(=O)c2cc3c(=O)n4ccccc4nc3s2)CC1 | inconclusive: 14.1 µM [quencher, side channel, partial curve] | 
31 | CC1C(=O)OC(c2ccc(Cl)cc2)C(C)(C)C1=O (stereo not given) |  | inactive: 5.4%
32 | Cc1cccc(NC(=S)NC(NC(=O)OCc2ccccc2)C(Cl)(Cl)Cl)c1 (stereo not given) |  | inactive: -0.705%
33 | COc1ccc(C(=S)Nc2ccc(C)cc2)cc1 |  | inactive: -3.95%
34 | COc1ccccc1CNC(=O)COc1cccnc1[N+](=O)[O-] | inconclusive: 17.8 µM [quencher, side channel, partial curve] | 
35 | C#CCOCCOCCOCCNc1nc(N2CCOCC2)nc(N2CCN(C(=O)[C@H](C)n3cc(CCCN=C(N)N)nn3)CC2)n1 | inconclusive: 100 µM [inhibitor, single point] | 
36 | C=CCn1cnc2c(c1=O)c1nc3ccccc3nc1n2/N=C/c1ccccn1 | inconclusive: 7.94 µM [quencher, side channel, partial curve] | 
37 | N#CCCn1cc(C(=O)Nc2ccc(C(=O)O)cc2)c(-c2ccc([N+](=O)[O-])cc2)n1 | inconclusive: 12.6 µM [quencher, partial curve] | 
38 | O=C1NC(=O)C2(CCc3ccccc32)N1 (stereo not given) |  | inactive: -3.38%
39 | Cc1ccc(NC(=O)c2ccc(NCCCN3CCC(C)CC3)c([N+](=O)[O-])c2)c(C)c1 | inconclusive: 12.6 µM [quencher, side channel, partial curve] | 
40 | O=C(CNS(=O)(=O)c1cccc2nonc12)NCc1ccc(F)cc1 | inconclusive: 15.8 µM [quencher, partial curve] | 
